Measured values reported in PubChem BioAssay AID463173 (ICCB-Longwood Screening Facility, Harvard Medical School, 2010).
Hit rate of the full screen: of about 52,000 compounds, about 4,300 (8.3%) were called active. No stated cut-off is given here; in the data, active means survival mostly below about 52% (no sharp cut-off); inactive means mostly above about 56%. The list shows a part of the results.

test system: DeltatarO mutant; experiment: S. aureus survival, RN4220 and DeltatarO strains – OD600, teichoic acid synthesis inhibitors, primary screen (AID 463173); conditions: S. aureus RN4220 wild type/DeltatarO growth, OD600, 18 h, hits give low values, screened at 18.75 µg/mL (by protocol)

Compound | survival
Cc1ccc(N(C)S(=O)(=O)c2ccc3[nH]cc(C(=O)O)c(=O)c3c2)cc1C | inactive: 70%
CC(=O)c1ccc(NC(=O)CSc2nc(-c3ccccc3F)nc3c2c(=O)n(C)c(=O)n3C)cc1 | inactive: 75%
CCN(Cc1ccccc1)C(=O)Nc1ccc2c(c1)N(C)C(=O)c1ccccc1S2 | inactive: 87%
Cc1ccc(C(=O)Nc2ccc3c(c2)N(C)C(=O)c2ccccc2S3)cc1F | inactive: 96%
N#C/C(=C\c1ccccc1)c1nc(-c2cc3cc(Br)ccc3oc2=O)cs1 | inactive: 74%
CCc1ccc(CNCc2c(C(=O)O)n(Cc3cccc(F)c3)c3cc(OC)ccc23)cc1 | inactive: 79%
Cc1cccc(N(C)C(=O)c2cc(S(=O)(=O)N3CCCC3)cn2C)c1 | inactive: 82%
O=C(Nc1ccccc1Br)C1CCCN(S(=O)(=O)c2cccc3nsnc23)C1 (stereo not drawn) | inactive: 77%
Cn1ccnc1SC(=O)N1c2ccccc2Sc2ccccc21 | inactive: 77%
COc1cccc(N2CCN(S(=O)(=O)c3ccc4[nH]c5c(c4c3)CCCC5)CC2)c1 | inactive: 84%
O=C(NCCS(=O)(=O)N1CCN(c2ccccc2)CC1)C(c1ccccc1)c1ccccc1 | inactive: 91%
O=C1CC(c2ccccc2)Cc2[nH]c(=O)c(C(=O)Nc3cccc(F)c3)cc21 (stereo not drawn) | inactive: 89%
Cc1cccc(NC(=O)c2c(NC(=O)C(F)(F)F)sc3c2CCCCC3)c1 | active: -3%
CCOC(=O)c1cccc(Nc2c3c(nc4ccccc24)CCC3)c1 | inactive: 68%
Cc1ccc(N2CC(c3nc4ccccc4n3CCC3CCCCC3)CC2=O)cc1 (stereo not drawn) | inactive: 64%
CCOc1ccc(C(CC(=O)O)N2Cc3ccccc3C2=O)cc1OC (stereo not drawn) | inactive: 96%
CC(O)c1nc2ccc(Oc3ccc4nc(C(C)O)[nH]c4c3)cc2[nH]1 (stereo not drawn) | inactive: 94%
COc1ccccc1NC(=O)Cn1nnc(C(=O)NCc2ccc3c(c2)OCO3)c1N | inactive: 103%
Cn1c(NCCO)nc2c1c(=O)n(Cc1ccccc1Cl)c(=O)n2C | inactive: 74%
CCC(C)NC(=O)Cn1c(=O)cc(-c2ccccc2)c2c(C)nn(C)c21 (stereo not drawn) | inactive: 70%
O=C(CSc1nc2c([nH]c3ccccc32)c(=O)n1-c1ccc(F)cc1)N1CCCCC1 | inactive: 92%
CCc1ccc(OCC(=O)N(Cc2ccc(Cl)cc2)C2CCS(=O)(=O)C2)cc1 (stereo not drawn) | active: 57%

Compound | survival
Cc1noc(C)c1S(=O)(=O)N1CCC(C(=O)N2CCN(c3ccccc3)CC2)CC1 | inactive: 129%
CCOC(=O)c1oc2c(c1C)-c1nn(Cc3ccc(Cl)cc3)cc1CC2 | active: 16%
CC(=O)Oc1c(O)ccc2c(C)cc(=O)oc12 | inactive: 57%
C/C(=N\NC(=O)c1cc2ccccc2cc1O)c1ccc(N)cc1 | inactive: 70%
CCOC(=O)Cc1ccc(NC(=O)NCc2ccc3c(c2)CCN3C(=O)CC)cc1 | inactive: 71%
O=C(CCS(=O)(=O)c1cc(Br)cc2c1N(C(=O)C1CC1)CC2)Nc1ccc(Br)cc1F | inactive: 98%
O=S(=O)(c1ccc2c(c1)OCCO2)N1CCN(c2ncccn2)CC1 | inactive: 94%
COc1ccccc1C(=O)Nc1cc2c(cc1N1CCOCC1)n(C)c(=O)n2C | inactive: 136%
COc1cc2[nH]c(=O)n(CCCCCC(=O)N3CCN(c4cccc(C(F)(F)F)c4)CC3)c(=O)c2cc1OC | inactive: 83%
COc1cccc(Oc2nc3c(c(=O)n(Cc4ccccc4F)c(=O)n3C)n2C)c1 | inactive: 74%
CC(C)OC(=O)C1=C(N)OC2=C(C(=O)CCC2)C1c1ccccc1F (stereo not drawn) | inactive: 73%
Cc1cccc(NS(=O)(=O)c2ccc3oc(=O)c4ncn(C)c4c3c2)c1C | inactive: 109%
COc1cccc(N2CCN(C(=O)c3c(C)oc4ncnc(N5CCOCC5)c34)CC2)c1 | inactive: 89%
Cc1c(C(=O)N(C)C)sc2c1c(=O)n(-c1ccc(Cl)c(Cl)c1)c(=O)n2CC(=O)Nc1cccc(C(F)(F)F)c1 | active: 46%
CC(C)c1ccc(NC(=O)CN(C)S(=O)(=O)c2ccc3c(c2)c(=O)n(C)c(=O)n3C)cc1 | inactive: 81%
CCn1c(=O)n(CC)c2cc(N3CCCCC3)c(NC(=O)Nc3ccccc3Cl)cc21 | inactive: 95%
COc1ccc2c(CNCCc3cccs3)c(C(=O)O)n(Cc3ccccc3)c2c1 | inactive: 75%
O=C(CCCN1C(=O)C(c2ccccc2)Oc2cccnc21)Nc1ccc(Br)cc1F (stereo not drawn) | inactive: 82%
O=C(NC1CCCc2ccccc21)c1ccc2c(c1)sc1nc(-c3ccc(F)cc3)cn12 (stereo not drawn) | inactive: 68%
CCn1c(CSc2nc(C)cc(C)n2)nnc1SCc1ccccc1 | inactive: 101%
CCOc1ccc(CCNC(=O)c2cc3c(=O)[nH]c4ccc(C)cc4c3s2)cc1OCC | inactive: 73%
CCc1ccc2c(c1)NC(c1cccs1)=NC(c1ccc(F)cc1)=N2 | inactive: 52%

Compound | survival
CCc1ccccc1N(C)C(=O)Cn1cnc2sc(C)c(S(=O)(=O)N3CCN(c4ncccn4)CC3)c2c1=O | inactive: 77%
COc1ccc(NC(=O)Cn2c(=O)oc3cc(S(=O)(=O)N4CCC(C)CC4)ccc32)c(OC)c1 | inactive: 85%
Cc1ccc(NS(=O)(=O)c2cc(Br)cc3c2N(C(=O)C2CC2)CC3)cc1C | inactive: 95%
OCc1cc(CO)c(O)c(CCc2ccccc2)n1 | inactive: 88%
CCCS(=O)(=O)c1c(Nc2ccccc2C)sc(C(=O)c2ccccc2)c1N | active: 28%
CCOc1ccccc1CNC(=O)CCn1ccc2cc(S(=O)(=O)N3CCC(C)CC3)ccc21 | inactive: 89%
COC(=O)c1ccc(Cn2nnc3sc4c(c3c2=O)CCC(C)C4)cc1 (stereo not drawn) | inactive: 79%
O=C(NCc1cccc(F)c1)c1ccc(-n2cnc3cccnc32)cc1 | inactive: 97%
Cc1cccc(Cn2cc(C(=O)Nc3ccc(F)c(C(F)(F)F)c3)ccc2=O)c1 | inactive: 120%
CCCCN(CC)CCNC(=O)c1cc2c(=O)oc3ccc(C)cc3c2s1 | inactive: 105%
CCn1c(=O)c2cc(C(=O)NCCc3cc(OC)ccc3OC)sc2c2ccccc21 | active: 34%
CCc1ccc2nc(N3CCCC3)c(C#N)cc2c1 | inactive: 73%
Cc1cc(C)cc(-n2c(C)cc(/C=N/NC(=O)CSc3ncccn3)c2C)c1 | inactive: 106%
O=C(Cn1c(=O)n(-c2cccc(Cl)c2)c(=O)c2sc3ccccc3c21)N1CCCC1 | inactive: 76%
CCOc1ccc(C(=O)Nc2c(C(=O)Nc3ccccc3F)oc3ccccc23)cc1OCC | inactive: 46%
CCN(CC)CCCNC(=O)C1CCN(S(=O)(=O)CC)CC1 | inactive: 122%
O=S1(=O)c2ccccc2N(Cc2ccccc2)c2ccccc21 | inactive: 69%
CC(=O)c1ccc(NC(=O)c2c3c(nc4ccccc24)C(=O)N(C2CCCCC2)C3)cc1 | inactive: 115%
COC(=O)c1cc(C)nc2c1c(=O)nc(SCc1ccccc1F)n2C1CC1 | inactive: 84%
CCOC(=O)CN1C(=O)C(O)(CC(=O)c2cc(OC)ccc2OC)c2ccccc21 (stereo not drawn) | inactive: 184%
Cn1cc(S(=O)(=O)c2ccccc2)c(=O)c2cc(F)c(N3CCN(c4ccccc4)CC3)cc21 | inactive: 116%
Cc1cccc(-n2c(-c3ccccc3)cn3c4c(=O)[nH]c(=O)n(C)c4nc23)c1 | inactive: 145%

Compound | survival
Cc1ccc(-c2cc(C(F)(F)F)n3nc(C(=O)Nc4ccc(Cl)c(C(F)(F)F)c4)cc3n2)cc1 | inactive: 77%
Cc1cc(C)c(Cn2c3ccccc3c3cnn(CC(=O)N4CCCCCC4)c(=O)c32)c(C)c1 | active: 9%
Cc1cccc(C)c1OCC(=O)Nc1nc(-c2ccc(Br)cc2)ns1 | inactive: 61%
Nc1cc(N)nc(SCC(=O)NCc2ccccc2)n1 | inactive: 99%
O=C(NCc1ccc(Cl)cc1)C(=O)Nc1ccc(Br)cc1 | inactive: 63%
COc1ccc(C2=NN(C(=O)CCC(=O)O)C(c3ccccc3F)C2)cc1OC (stereo not drawn) | inactive: 89%
CCc1cccc(NC(=O)Cn2c(=O)n(Cc3ccccc3)c(=O)c3c2c2cc(OC)ccc2n3C)c1 | inactive: 86%
CC1CCN(Cc2c(O)ccc3c(=O)c(-c4cccc(Cl)c4)c(C(F)(F)F)oc23)CC1 | inactive: 59%
CC(=O)c1cc2c(cc1NC(=O)c1c(C)nn(-c3ccc(C)cc3)c1-n1cccc1)OCO2 | inactive: 83%
COc1ccc(OCCn2cc(C(=O)C3CCCCC3)c3ccccc32)cc1 | active: 13%
O=C(Nc1cccc(Br)c1)N1CCC(CN2CCCCC2)CC1 | inactive: 83%
Cc1ccc(NC(=O)CSc2nc3ncccc3[nH]2)cc1F | inactive: 94%
COc1cccc(N2CCN(C(=O)c3cnn(C(C)(C)C)c3C3CCN(C(=O)OC(C)(C)C)CC3)CC2)c1 | inactive: 76%
O=C(c1ccc2c(c1)CCN2S(=O)(=O)c1ccccc1)N1CCN(c2ccc(F)cc2)CC1 | inactive: 50%
Cc1ccc(S(=O)(=O)NCCc2cn3c(C)csc3n2)cc1 | inactive: 67%
Cc1cccc(NC(=O)C2CCN(c3nnc(-n4c(C)ccc4C)s3)CC2)c1C | inactive: 94%
COc1ccc(-c2nnc(C3CCN(C(=O)c4ccccc4F)CC3)o2)cc1 | inactive: 92%
Cc1ccc2nc(-c3cc(NC(=O)c4ccc5c(c4)OCCO5)ccc3Cl)oc2c1 | inactive: 82%
COc1ccc(C2Sc3ccccc3NC3=C2C(=O)c2ccccc23)c(OC)c1OC (stereo not drawn) | inactive: 77%
COc1ccc(C(=O)n2cnnc2N)cc1 | inactive: 103%
COc1ccc(-c2onc(C)c2C)cc1S(=O)(=O)N1c2ccccc2CC1C (stereo not drawn) | inactive: 80%
CCc1ccccc1NC(=O)Cn1c(-c2nonc2N)nc2ccccc21 | inactive: 86%
